The record followed here is paper PMC4336329 (PLoS ONE, 2015).

The whole screen tested about 310,000 compounds, of which about 2,200 (0.71%) showed an effect of 50% or more. The effect is printed as a negative number. Some of the results follow. *1 amine or outer side, *2 acyl side, *3 side chain or, on linkers, in order; H or OH if unused. Where a SMILES comes first, the peptide text is derived from it. Bridges are numbered along the chain shown (N, C = ends). [ ]: non-standard residue; d: D form. ξ: configuration not given here. hSer(Ph(2-I,4-NO2,6-CO)) = O=C([C@H](CCOc1c(I)cc([N+](=O)[O-])cc1C(=O)[*:3])N[*:1])[*:2]; ξD = NC(CC(=O)O)C(=O)O

For this test, the target named is human ether-à-go-go-related gene (hERG) potassium channel (human, UniProt Q12809). The test is described as follows: primary screen, population patch clamp on CHO cells stably expressing hERG.
human ether-à-go-go-related gene (hERG) potassium channel, sequence (Q12809 whole entry, looked up): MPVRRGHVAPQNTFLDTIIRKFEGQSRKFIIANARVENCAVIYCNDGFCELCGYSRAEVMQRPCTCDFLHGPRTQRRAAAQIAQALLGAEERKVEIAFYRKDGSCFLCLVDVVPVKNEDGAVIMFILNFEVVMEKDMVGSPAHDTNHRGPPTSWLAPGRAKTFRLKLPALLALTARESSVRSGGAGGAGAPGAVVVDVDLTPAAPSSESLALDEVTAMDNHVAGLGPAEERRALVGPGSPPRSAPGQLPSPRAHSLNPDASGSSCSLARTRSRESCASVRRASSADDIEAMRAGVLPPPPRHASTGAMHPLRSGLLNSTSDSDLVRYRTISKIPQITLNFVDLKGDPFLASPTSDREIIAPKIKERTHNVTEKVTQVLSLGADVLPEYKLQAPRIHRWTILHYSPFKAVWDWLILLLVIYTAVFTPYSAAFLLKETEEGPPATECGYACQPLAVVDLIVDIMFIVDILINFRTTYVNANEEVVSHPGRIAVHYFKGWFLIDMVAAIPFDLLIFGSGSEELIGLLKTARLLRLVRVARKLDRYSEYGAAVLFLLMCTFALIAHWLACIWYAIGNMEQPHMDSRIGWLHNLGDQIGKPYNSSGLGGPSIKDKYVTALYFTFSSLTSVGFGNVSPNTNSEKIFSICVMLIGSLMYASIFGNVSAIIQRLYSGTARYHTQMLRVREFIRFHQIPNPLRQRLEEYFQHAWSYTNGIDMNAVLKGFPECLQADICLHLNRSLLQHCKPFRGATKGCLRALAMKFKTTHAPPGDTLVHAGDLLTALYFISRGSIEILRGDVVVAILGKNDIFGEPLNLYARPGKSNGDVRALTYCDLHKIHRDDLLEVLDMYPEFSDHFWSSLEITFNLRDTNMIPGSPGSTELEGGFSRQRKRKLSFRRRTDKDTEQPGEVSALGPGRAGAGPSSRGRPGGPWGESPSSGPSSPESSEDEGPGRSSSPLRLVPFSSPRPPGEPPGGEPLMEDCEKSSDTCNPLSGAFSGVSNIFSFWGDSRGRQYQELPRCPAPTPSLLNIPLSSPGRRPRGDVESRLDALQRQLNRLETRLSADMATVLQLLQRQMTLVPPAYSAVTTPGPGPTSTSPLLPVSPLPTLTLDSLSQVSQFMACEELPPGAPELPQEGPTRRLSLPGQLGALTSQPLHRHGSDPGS
On to `O=S(=O)(c1ccc(F)cc1)n1ccc2cccnc21`, for which the “hERG current change (%, negative = inhibition) at 1uM” value is reported as 5.64%.

Turning to `CC1(C)Cc2nc3sc4c(SCC(=O)NCc5ccccc5)ncnc4c3cc2CO1`, the “hERG current change (%, negative = inhibition) at 1uM” value is on record as 1.68%.

`C=CCn1c(SCc2ccc(C#N)cc2)nnc1-c1ccc(C)cc1`: the “hERG current change (%, negative = inhibition) at 1uM” value is listed as -37.5%.

For `COC(=O)c1ccc(COC(=O)c2cnccn2)cc1`, the “hERG current change (%, negative = inhibition) at 1uM” value was 13%.

Consider `O=C(COC(=O)c1ccc(O)cc1)NC(=O)NCc1ccccc1`, for which the “hERG current change (%, negative = inhibition) at 1uM” value was 10.1%.

`CC(CNC(=O)COc1ccccc1)OC(=O)Nc1cccc(Cl)c1` (stereo not shown): the “hERG current change (%, negative = inhibition) at 1uM” value was 1.13%.

`COc1ccccc1CNS(=O)(=O)c1ccc2[nH]cc(C(=O)O)c(=O)c2c1`: the “hERG current change (%, negative = inhibition) at 1uM” value is recorded as 19.1%.

`Cc1nc2ccccc2n1S(=O)(=O)c1ccc(Br)cc1`: the “hERG current change (%, negative = inhibition) at 1uM” value was determined as 6.42%.

Regarding `Fc1ccccc1CN1CCCC(NC2CCC2)C1` (stereo not shown), the “hERG current change (%, negative = inhibition) at 1uM” value was 12.1%.

As to `CCc1nnc(NC(=O)c2nc(S(=O)(=O)Cc3ccc(C)cc3)ncc2Cl)s1`, the “hERG current change (%, negative = inhibition) at 1uM” value was found to be 14.6%.

Take `Cc1ccc(C(=O)Nc2cc(S(=O)(=O)N3CCOCC3)ccc2N2CCCC2)cc1`: the “hERG current change (%, negative = inhibition) at 1uM” value is reported as 8.64%.

`Cc1ccc(C(=O)C2=C(O)C(=O)N(c3ncccn3)C2c2ccc(Br)cc2)o1` (stereo not shown): the “hERG current change (%, negative = inhibition) at 1uM” value is listed as 12.7%.

With `COc1ccc(NC(=O)CSc2cccc3cccnc23)c(OC)c1`, the “hERG current change (%, negative = inhibition) at 1uM” value was -2.28%.

Regarding `CC(C)C1OC(c2cccc(NC(=O)c3cccs3)c2)OCC1(C)C` (stereo not shown), the “hERG current change (%, negative = inhibition) at 1uM” value came out at 13.5%.

As for `COc1ccc(C)cc1S(=O)(=O)N(C)CC(=O)N1CCCCC1`, the “hERG current change (%, negative = inhibition) at 1uM” value turned out to be 7.86%.

As for `O=C(COC(=O)c1cnccn1)Nc1ccc2c(c1)OCO2`, the “hERG current change (%, negative = inhibition) at 1uM” value is reported as 8.05%.

Regarding `O=S(=O)(c1cccs1)n1cccn1`, the “hERG current change (%, negative = inhibition) at 1uM” value is reported as 3.88%.

Turning to `COc1ccc(C(=O)OCC(=O)NC(=O)NCc2ccccc2)cc1[N+](=O)[O-]`, the “hERG current change (%, negative = inhibition) at 1uM” value was determined as 12.9%.

With `CC(=O)N1c2ccc(S(=O)(=O)NCCC(=O)NCCc3ccc(C)cc3)cc2CC1C` (stereo not shown), the “hERG current change (%, negative = inhibition) at 1uM” value was found to be 4.46%.

With `O=C(NCC1CCCCC1)c1cccc([N+](=O)[O-])c1`, the “hERG current change (%, negative = inhibition) at 1uM” value was determined as 11.4%.

As to `Cc1ccc(-c2cc(C(F)F)n3ncc(C(=O)N4CCN(c5cccc(C)c5C)CC4)c3n2)cc1`, the “hERG current change (%, negative = inhibition) at 1uM” value is 7.8%.

Turning to `O=C(Nc1cnccn1)Nc1ccccc1Cl`, the “hERG current change (%, negative = inhibition) at 1uM” value was 4.72%.

As to `CCN(CC)S(=O)(=O)c1ccc(C)c(NC(=O)COC(=O)[C@@H]2CCCN2C(=O)c2cccs2)c1`, the “hERG current change (%, negative = inhibition) at 1uM” value was 7.15%.

As for `OCC1(Cc2ccccc2C(F)(F)F)CCN(Cc2cccc3cnccc23)CC1`, the “hERG current change (%, negative = inhibition) at 1uM” value is listed as 4.24%.

On to `Cc1nnc(NC(=O)c2oc3c(ccc4ccccc43)c2C)s1`, for which the “hERG current change (%, negative = inhibition) at 1uM” value came out at 16.7%.

In the case of `CCOC(=O)Cc1csc(NC(=O)Nc2ccc(F)cc2)n1`, the “hERG current change (%, negative = inhibition) at 1uM” value turned out to be 14%.

Take `CCC1(c2ccccc2)NC(=O)N(CC(=O)Nc2cc(S(=O)(=O)N3CCOCC3)ccc2OC(C)C)C1=O` (stereo not shown): the “hERG current change (%, negative = inhibition) at 1uM” value came to 4.54%.

For the compound `Cn1c(-c2c(N)n(-c3ccccc3)c3nc4ccccc4nc23)nc2ccccc21`, the “hERG current change (%, negative = inhibition) at 1uM” value amounted to 8.79%.

Turning to `C/C(=N\NC(=O)C1CC1)c1ccc(NC(=O)c2ccc(Br)o2)cc1`, the “hERG current change (%, negative = inhibition) at 1uM” value is 15.5%.

As for `NC(=O)C(CC(=O)O)NC(=O)[C@@H]1CCOc2c(I)cc([N+](=O)[O-])cc2C(=O)N[C@@H](CO)C(=O)N[C@@H](Cc2ccc(O)cc2)C(=O)N1` (stereo partly shown) (SY[hSer(Ph(2-I,4-NO2,6-CO))][ξD]-NH2; lactam N-3), the “hERG current change (%, negative = inhibition) at 1uM” value was -1.41%.

As for `CS(=O)(=O)N(Cc1ccc(Cl)cc1)c1ccc(C(=O)NCCC2=CCCCC2)cc1`, the “hERG current change (%, negative = inhibition) at 1uM” value is listed as -3.85%.

`COc1ccccc1NS(=O)(=O)N(C)C`: the “hERG current change (%, negative = inhibition) at 1uM” value came to 11.9%.

For `CCNC(=S)Nc1cccc(F)c1C`, the “hERG current change (%, negative = inhibition) at 1uM” value amounted to 12%.

Take `CCN(c1ccc(Cl)cc1)S(=O)(=O)c1nnc(NC(=O)C(C)C)s1`: the “hERG current change (%, negative = inhibition) at 1uM” value stood at 9.39%.

With `Cc1cc(Cl)ccc1C(=O)C1CCCN(C(=O)c2cccc(N3CCCC3=O)c2)C1` (stereo not shown), the “hERG current change (%, negative = inhibition) at 1uM” value was found to be 3.1%.

As for `Cc1ccc(S(C)(=O)=NC(=O)NC(=O)c2c(Cl)cccc2Cl)cc1` (stereo not shown), the “hERG current change (%, negative = inhibition) at 1uM” value came out at 7.69%.

Turning to `COC(=O)C1=C(C)NC(C)=C(C(=O)OC)C1c1ccc(NC(C)=O)cc1`, the “hERG current change (%, negative = inhibition) at 1uM” value came out at 18.5%.

As to `CC(=O)Nc1nc(-c2ccc3c(c2)CCO3)cs1`, the “hERG current change (%, negative = inhibition) at 1uM” value came out at 9.73%.

As for `CCN(CC)S(=O)(=O)c1ccc2c(c1)NC(=O)C1CCCN21` (stereo not shown), the “hERG current change (%, negative = inhibition) at 1uM” value came out at 9.37%.

In the case of `O=C(Cc1ccc(Br)cc1)Nc1ncc([N+](=O)[O-])s1`, the “hERG current change (%, negative = inhibition) at 1uM” value is on record as -1.37%.

Consider `O=C(NC1CCN(Cc2ccccc2)CC1)C1CCN(S(=O)(=O)c2cccc3nsnc23)CC1`, for which the “hERG current change (%, negative = inhibition) at 1uM” value is recorded as 8.24%.

As to `Cc1c(NS(=O)(=O)c2ccc([N+](=O)[O-])cc2)c(=O)n(-c2ccccc2)n1C`, the “hERG current change (%, negative = inhibition) at 1uM” value is recorded as 18.6%.

For the compound `Cc1cc2cc3c(cc2nc1SCC(=O)Nc1c(C)cccc1C)CCC3`, the “hERG current change (%, negative = inhibition) at 1uM” value was determined as 12.9%.
